{"source": "PubChem BioAssay AID1454", "about": "(National Center for Advancing Translational Sciences (NCATS), 2008)", "note": "Out of some 130,000 compounds screened, about 550 (0.42%) were called active. Inconclusive results, whose numbers are uncertain, are shown with a selection of clear calls. Calls follow the shape of the dose curve; as a rule, active = well fitted inhibition curve with a large enough effect; inconclusive = small, poorly fitted or top-dose-only effect, or effect the other way; inactive = flat fitted curve, though single readings scatter. Potencies of inconclusive entries are left out as doubtful fits. Potency is read from the fitted curve at half-maximal effect; tags tell the direction and shape of the fitted curve."}
{"assay": "qHTS Assay for Inhibitors of the ERK Signaling Pathway using a Homogeneous Screening Assay; Stimulation with EGF; also: nearly all actives have a fitted effect of over 55% in size", "conditions": "HEK293-V1b, EGF-stimulated phospho-ERK AlphaScreen", "summary_of_the_method": "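Homogeneous cell-based phospho-ERK assay: HEK293/V1b cells in 1% FBS, compound 30 min then EGF 5 min, AlphaScreen luminescence. Activity normalized between DMSO and 25 nM EGF controls; AC50 from Hill modelling.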"}
{"compound": "C=CCSc1ncc(CO)n1Cc1ccccc1", "Potency": "inconclusive [inhibitor, single point]"}
{"compound": "Clc1nc2c(-c3ccccc3)nnn2c2ccccc12", "Potency": "inconclusive [activator, partial curve]"}
{"compound": "CCOC(=O)C(CCc1ccccc1)NC(C)C(=O)N1Cc2ccccc2CC1C(=O)O", "note": "(stereo not given)", "Potency": "inactive"}
{"compound": "COc1ccc(S(=O)(=O)N2CCC(O)(c3ccc(Cl)cc3)CC2)cc1OC", "Potency": "inconclusive [inhibitor, partial curve]"}
{"compound": "O=C(Nc1ccc(Nc2ccccc2)cc1)C(Cl)(Cl)Cl", "Potency": "inconclusive [inhibitor, single point]"}
{"compound": "CC(C)OC(=O)C(C#N)c1nc2ccccc2nc1N1CCCC1", "note": "(stereo not given)", "Potency": "inconclusive [inhibitor, single point]"}
{"compound": "CN(C)c1ncc(/C=C2/C(=O)NC(=S)N(C3CCCCC3)C2=O)cn1", "Potency": "inactive"}
{"compound": "CCOc1ccc(NC(=O)Nc2ccccc2C(N)=O)cc1", "Potency": "inactive"}
{"compound": "O=C(/C=C/c1ccc(F)cc1)N1CC[C@@]2(O)CCCC[C@H]2C1", "Potency": "inconclusive [inhibitor, single point]"}
{"compound": "C=CCn1c(=NC(=O)c2sc3ccccc3c2Cl)sc2cc(S(N)(=O)=O)ccc21", "Potency": "inactive"}
{"compound": "CCOC(=O)Cn1c2c(c(-c3ccccc3OC)cc1=O)CCCC2", "Potency": "inconclusive [inhibitor, partial curve]"}
{"compound": "CCOC(=O)CCCCCN(Cc1ccccc1)S(=O)(=O)c1ccc([N+](=O)[O-])cc1", "Potency": "inconclusive [inhibitor, partial curve]"}
{"compound": "c1ccc(CSc2ncnc3c2cnn3-c2ccccc2)cc1", "Potency": "inconclusive [activator, single point]"}
{"compound": "Clc1ccc(/C(Cc2nc3ccccc3[nH]2)=N\\Nc2ccccc2)cc1", "Potency": "inconclusive [inhibitor, single point]"}
{"compound": "CCCCCC(=O)NNC(=O)c1c(O)c2ccccc2n(CC)c1=O", "Potency": "inconclusive [inhibitor, single point]"}
{"compound": "Cc1ccccc1C(=O)NC(=S)Nc1ccccc1N1CCCC1", "Potency": "inconclusive [inhibitor, partial curve]"}
{"compound": "COc1ccc(-n2c(C)cc(C(=O)COc3ccc(C)nc3[N+](=O)[O-])c2C)cc1", "Potency": "inconclusive [inhibitor, single point]"}
{"compound": "CCCn1c(SCC(=O)c2cc(C)n(-c3ccc4c(c3)OCO4)c2C)n[nH]c1=O", "Potency": "inactive"}
{"compound": "Cc1cccn2cc(CCNS(=O)(=O)c3cccs3)nc12", "Potency": "inconclusive [inhibitor, partial curve, poor fit]"}
{"compound": "CC(=O)Oc1ccc2c(c1OC(C)=O)OCC1(O)Cc3c(cc(OC(C)=O)c(OC(C)=O)c3OC(C)=O)C21", "note": "(stereo not given)", "Potency": "inconclusive [inhibitor, partial curve]"}
{"compound": "COc1ccccc1NS(=O)(=O)c1ccc(NN=C2CCCCC2)c([N+](=O)[O-])c1", "Potency": "inconclusive [inhibitor, partial curve]"}
{"compound": "CCN(CC)c1ccc(N=Cc2ccc([N+](=O)[O-])o2)cc1", "Potency": "inconclusive [inhibitor, single point]"}
{"compound": "C=CCNC(=O)/C(C#N)=C/c1c(N2CC(C)OC(C)C2)nc2ccccn2c1=O", "note": "(stereo not given)", "Potency": "inconclusive [inhibitor, partial curve]"}
{"compound": "S=C(c1ccc(-c2ccccc2)o1)N1CCCCC1", "Potency": "inconclusive [inhibitor, partial curve]"}
{"compound": "COc1ncc2nc(-c3cn(C)c4ccccc34)c(=O)n(Cc3ccc(F)cc3)c2n1", "Potency": "inconclusive [activator, full curve]"}
{"compound": "CCCCCCCCCCS(=O)(=O)N/N=C/c1ccc(O)cc1", "Potency": "inconclusive [inhibitor, single point]"}
{"compound": "O=C1c2ccccc2C(=O)c2c1cccc2N1CCCC1", "Potency": "active: 10 µM"}
{"compound": "COc1ccccc1N1CCN(C(=O)c2ccc3c(Cl)c4c(nc3c2)CCCC4)CC1", "Potency": "inconclusive [inhibitor, partial curve]"}
{"compound": "Cc1cc(C(=O)OCC(=O)c2cccs2)c2ccccc2n1", "Potency": "inconclusive [inhibitor, full curve, poor fit]"}
{"compound": "Cc1[nH]n(-c2ccccc2)c(=O)c1/C=N/N(c1ccccc1)c1ccccc1", "Potency": "inconclusive [inhibitor, single point]"}
{"compound": "O=C(c1ccc(-c2ccccc2)cc1)C1CCCN(Cc2ccncc2)C1", "note": "(stereo not given)", "Potency": "inconclusive [inhibitor, partial curve]"}
{"compound": "COc1ccc(-c2csc(Nc3ccc(S(N)(=O)=O)cc3)n2)cc1OC", "Potency": "inconclusive [inhibitor, single point]"}
{"compound": "Cc1c(NC(=O)c2ccc(Cl)nc2)cccc1-c1nc2cccnc2s1", "Potency": "inconclusive [inhibitor, partial curve]"}
{"compound": "O=C1C(NS(=O)(=O)c2ccccc2)=C(N2CCN(c3ccc(F)cc3)CC2)C(=O)c2ccccc21", "Potency": "active: 25.1 µM"}
{"compound": "OCCOCCNc1ncnc2c1cnn2-c1ccccc1", "Potency": "inconclusive [inhibitor, partial curve]"}
{"compound": "Cc1c(C#N)c(NC(=O)CCl)n(Cc2ccccc2)c1C", "Potency": "inactive"}
{"compound": "c1ccc(-c2csc3ncnc(NCC4COc5ccccc5O4)c23)cc1", "note": "(stereo not given)", "Potency": "active: 14.1 µM"}
{"compound": "Cn1c(SCC(=O)Nc2cc(Cl)cc(Cl)c2)nnc1-c1ccc2nonc2c1", "Potency": "inconclusive [inhibitor, single point]"}
{"compound": "CCN(CC)S(=O)(=O)c1ccc(OC)c(NC(=O)c2cc(=O)[nH]c3ccccc23)c1", "Potency": "inconclusive [inhibitor, single point]"}
{"compound": "O=C(Nc1ccccn1)c1csc2c1CCCC2", "Potency": "inactive"}
{"compound": "CC(=O)Nc1ccc(Nc2cc(C)nc3c(-c4ccc(Cl)cc4)cnn23)cc1", "Potency": "inconclusive [inhibitor, single point]"}
{"compound": "COc1ccc(-c2nc(CN(CC3CCC(=O)N3)C(C)C)c(C)o2)c(C)c1C", "note": "(stereo not given)", "Potency": "inconclusive [activator, partial curve, poor fit]"}
{"compound": "CN(Cc1cccnc1)C(=O)c1cc(COc2ccc3ncccc3c2)on1", "Potency": "inconclusive [inhibitor, full curve]"}
{"compound": "COc1ccc(N2CCN(Cc3nc(-c4ccc(Cl)cc4Cl)no3)CC2)cc1", "Potency": "inconclusive [inhibitor, partial curve]"}
{"compound": "Cn1c(=O)[nH]c(=O)c2c1nc1n2CCCN1Cc1ccccc1", "Potency": "inconclusive [inhibitor, single point]"}
{"compound": "CCn1cc(C(=O)NNC(=O)c2ccc(Cl)cc2)c(=O)c2ccc(C)nc21", "Potency": "inconclusive [activator, partial curve, poor fit]"}
{"compound": "CN(C)S(=O)(=O)c1ccc2c(c1)nc(CCC(=O)NCc1ccc(Cl)cc1)n2C", "Potency": "inactive"}
{"compound": "Fc1ccc(CN2CCCN(Cc3nc(-c4ccc5c(c4)OCO5)no3)CC2)cc1", "Potency": "inconclusive [inhibitor, single point]"}
{"compound": "CCCCn1c2ccc(F)cc2c2nnc(NN)nc21", "Potency": "inconclusive [inhibitor, single point]"}
{"compound": "O=C(c1cccc(F)c1)N1CCC2(CC1)CCN(c1cccc(-c3ccccc3)c1)CC2", "Potency": "inactive"}
{"compound": "Clc1ccc(Nc2ncn[nH]2)c(Cl)c1", "Potency": "inconclusive [inhibitor, partial curve, poor fit]"}
{"compound": "CCn1ccnc1CN(C)Cc1cn(-c2ccc(C)cc2)nc1-c1ccc(F)cc1", "Potency": "inconclusive [inhibitor, single point]"}
{"compound": "CCCCC1=CC2=C(c3ccco3)C(=O)C(C)(OC(=O)c3ccc(Cl)nc3)C(=O)C2=CO1", "note": "(stereo not given)", "Potency": "inactive"}
{"compound": "CC(=O)c1ccc(N/N=C(/C(N)=O)C2=NC(C)(C)Cc3ccccc32)cc1", "Potency": "inconclusive [inhibitor, partial curve, poor fit]"}
{"compound": "O=C(c1c[nH]c(C(=O)C(Cl)(Cl)Cl)c1)c1ccccc1Br", "Potency": "inactive"}
{"compound": "Cc1c(/C=N/NC(=O)CNc2ccccc2)c2ccccn2c1C(=O)c1ccncc1", "Potency": "inconclusive [inhibitor, single point]"}
{"compound": "Cn1c(C(=O)N2CCN(c3ccc([N+](=O)[O-])cc3)CC2)cc2c(=O)[nH]c3ccccc3c21", "Potency": "inconclusive [activator, full curve, poor fit]"}
{"compound": "C=CCN=c1scc(-c2ccccc2)n1/N=C/c1ccccn1", "Potency": "inconclusive [inhibitor, single point]"}
{"compound": "O[C@@H]1COC(Nc2ccc(N=Nc3ccccc3)cc2)C[C@@H]1O", "note": "(stereo not given in full)", "Potency": "inconclusive [inhibitor, partial curve]"}
{"compound": "COc1cc(C(=S)N2CCN(c3cccc(Cl)c3)CC2)ccc1O", "Potency": "inconclusive [inhibitor, partial curve]"}
{"compound": "COc1cc2c(cc1OC)C1C(=O)c3c(O)cc4c(c3OC1CO2)C=CC(C)(C)O4", "note": "(stereo not given)", "Potency": "inconclusive [inhibitor, partial curve]"}
{"compound": "COc1ccccc1N1CCN(C(CNS(C)(=O)=O)c2cccnc2)CC1", "note": "(stereo not given)", "Potency": "inconclusive [activator, partial curve]"}
{"compound": "CCN(CC1COc2ccccc2O1)C(=S)NC1CC2CCC1C2", "note": "(stereo not given)", "Potency": "inconclusive [inhibitor, full curve, poor fit]"}
{"compound": "Cc1ccc(N/C(N)=N/c2nc(C)cc(N3CCCCC3)n2)c(C)c1", "Potency": "inconclusive [inhibitor, single point]"}
{"compound": "CCOc1ccc(/C=C2\\SC(=S)N(NS(=O)(=O)c3ccc(C)cc3)C2=O)cc1OC", "Potency": "inconclusive [inhibitor, full curve, poor fit]"}
